The text below walks through data of PMC4336329 (PLoS ONE, 2015).

Molecules are shown by their SMILES. Screen size: about 310,000 compounds; about 14,000 (4.5%) showed an effect of 50% or more. The effect is printed as a negative number. Some of the results follow.
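Note: peak tail current of the secondary pulse compared with the same well before compound.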

Chain of human ether-à-go-go-related gene (hERG) potassium channel (Q12809 whole entry, looked up): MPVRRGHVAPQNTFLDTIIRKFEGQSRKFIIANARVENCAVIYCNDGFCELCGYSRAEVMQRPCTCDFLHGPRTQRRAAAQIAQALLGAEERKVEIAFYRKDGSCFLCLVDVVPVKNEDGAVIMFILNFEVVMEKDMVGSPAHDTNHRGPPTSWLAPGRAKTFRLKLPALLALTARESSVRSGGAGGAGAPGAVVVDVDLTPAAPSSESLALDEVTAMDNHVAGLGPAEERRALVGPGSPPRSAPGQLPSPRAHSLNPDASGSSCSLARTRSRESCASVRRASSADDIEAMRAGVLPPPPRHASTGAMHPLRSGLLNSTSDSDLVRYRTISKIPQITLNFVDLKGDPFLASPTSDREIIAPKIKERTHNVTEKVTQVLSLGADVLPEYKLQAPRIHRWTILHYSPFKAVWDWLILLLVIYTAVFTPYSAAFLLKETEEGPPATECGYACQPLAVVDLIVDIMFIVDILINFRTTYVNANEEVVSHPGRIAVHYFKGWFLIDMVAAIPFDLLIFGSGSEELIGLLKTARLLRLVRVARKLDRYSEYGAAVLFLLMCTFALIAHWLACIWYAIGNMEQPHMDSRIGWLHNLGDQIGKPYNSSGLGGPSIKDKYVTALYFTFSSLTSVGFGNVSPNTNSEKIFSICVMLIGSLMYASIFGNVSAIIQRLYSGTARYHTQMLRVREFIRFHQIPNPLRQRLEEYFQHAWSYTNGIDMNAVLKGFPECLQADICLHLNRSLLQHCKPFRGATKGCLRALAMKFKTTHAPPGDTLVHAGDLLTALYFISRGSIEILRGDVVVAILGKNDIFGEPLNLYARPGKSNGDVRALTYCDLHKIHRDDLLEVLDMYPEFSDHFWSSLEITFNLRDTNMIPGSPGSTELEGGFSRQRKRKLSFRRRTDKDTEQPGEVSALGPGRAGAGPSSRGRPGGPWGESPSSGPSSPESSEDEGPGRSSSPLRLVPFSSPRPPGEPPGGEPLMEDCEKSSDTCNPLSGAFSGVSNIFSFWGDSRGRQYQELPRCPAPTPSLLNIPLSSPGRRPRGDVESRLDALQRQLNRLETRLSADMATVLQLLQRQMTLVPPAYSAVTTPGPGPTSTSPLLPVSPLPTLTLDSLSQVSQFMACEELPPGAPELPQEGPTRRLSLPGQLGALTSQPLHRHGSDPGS

The experiment addresses human ether-à-go-go-related gene (hERG) potassium channel (human, UniProt Q12809). Description: primary screen, population patch clamp on CHO cells stably expressing hERG.
In the case of `O=C(COC(=O)Cc1ccccc1[N+](=O)[O-])NCc1ccc(Cl)cc1`, the “hERG current change (%, negative = inhibition) at 10uM” value is recorded as -11%. Under `Cc1ccc2oc(=O)c3cc(C(=O)N4CCN(C)CC4)sc3c2c1` stands -16.8%. Under `CC(=O)c1ccc(N2CCN(C(=O)c3cccs3)C(C)C2)c(F)c1` (centres unmarked) stands -17%; under `O=C(O)c1ccc(-n2c(-c3ccccc3)n[nH]c2=S)cc1`, 16.5%. With `CC1=C(C(=O)N2CCCCC2)C(c2cccs2)NC(=O)N1` (centres unmarked) the figure was 6.88%; with `O=C(Nc1ccsc1C(=O)NC1CCCCC1)c1ccc(F)cc1`, -4.11%; with `Brc1ccc(CNCC2CCCO2)cc1` (centres unmarked), 4.37%. For `CCN(CC)C(=O)CSc1nc2c(sc(=S)n2-c2ccccc2)c(=O)n1-c1ccc(OC)cc1OC`, the “hERG current change (%, negative = inhibition) at 10uM” value is listed as 0.414%. Under `CN1C(=O)C2ON(c3ccccc3)C(c3cccs3)C2C1=O` (centres unmarked) stands -13.6%; under `CCOc1ccc(NC(=O)CSc2nnc(-c3ccccc3Cl)n2Cc2ccco2)cc1`, -16.7%; under `Cc1oc(-c2ccc(Cl)cc2)nc1CN1CCCC(C(=O)NCc2ccco2)C1` (centres unmarked), -71.9%. With `Cc1cc(S(=O)(=O)N2CCCC(N(C)CCc3ccccn3)C2)c(C)s1` (centres unmarked) the figure was -46.6%. With `O=C(Nc1ccc(Br)cc1F)c1cccnc1` the figure was -5.78%; with `COc1cc2c(cc1OC)CN(Cc1cc(=O)n3cc(C)ccc3n1)CC2`, -33.1%.

For the molecule `O=C(NCC1CCCO1)C1CCCN(S(=O)(=O)c2ccc(Cl)cc2)C1` (centres unmarked), the “hERG current change (%, negative = inhibition) at 10uM” value is listed as -0.983%.

In the case of `CCc1cccc2c(C(=O)CN3C(=O)N(C)C4(CCCCC4)C3=O)c[nH]c12`, the “hERG current change (%, negative = inhibition) at 10uM” value was -11.7%. Under `Cc1ccccc1Cn1cc(/C=N/n2cnnc2)c2ccccc21` stands 14.8%. Under `O=C(CSc1nnc(Cc2ccc3c(c2)OCO3)n1C1CCCCC1)NC1CCCC1` stands -0.948%. Under `COc1ccccc1N1CCN(S(=O)(=O)CCNC(=O)Cc2ccc(F)cc2)CC1` stands -18.7%; under `CC1Cc2ccccc2N1C(=O)CN1C(=O)CN(C)C(=O)c2ccccc21` (centres unmarked), 11.3%; under `CCn1c(SCC(=O)NNC(=O)c2ccc(C)cc2)nnc1C1CC1`, 26.2%. For the molecule `COc1ccc(CNC(=O)c2ccc(N3CCOCC3)c([N+](=O)[O-])c2)cc1`, the “hERG current change (%, negative = inhibition) at 10uM” value is -52.1%.

For `Cc1cc(C)c(C)c(S(=O)(=O)N[C@@H](C)C(=O)OCc2cc(=O)n3cc(Br)ccc3n2)c1C`, the “hERG current change (%, negative = inhibition) at 10uM” value is given as -47%. With `COc1ccc(/C=C/c2nnc(NC(=O)COc3ccc(C)cc3)s2)cc1` the figure was 12.5%; with `CCOC(=O)CSc1nc2ccc(S(=O)(=O)N3CCOCC3)cc2[nH]1`, 17.4%; with `O=C(Nc1ccc2c(c1)OCO2)c1cccc(Cl)c1`, 1.59%.

Regarding `O=C1NC2(CCCCC2)NN1c1ccccc1`, the “hERG current change (%, negative = inhibition) at 10uM” value is 13.8%. Under `O=C(OC1CCCCC1)c1ccc(NC(=O)c2ccco2)cc1` stands -23.6%; under `O=C(CCCN1C(=O)c2ccccc2C1=O)Oc1ccc(F)cc1`, -19.2%.

In the case of `O=C(CS(=O)(=O)c1ccccc1Cl)N1CCOCC1`, the “hERG current change (%, negative = inhibition) at 10uM” value is reported as 21.9%. Under `COCCNC(=O)CCn1nc(-c2ccc(C)cc2)c2ccccc2c1=O` stands -18.6%; under `O=c1cc(CN2CCc3ccccc32)c2ccc(O)cc2o1`, -0.218%; under `Cc1cc(=O)oc(C)c1C(=O)NCCC1=CCCCC1`, -5.61%. With `O=S(=O)(c1ccccc1Cl)N1CCC(O)(c2cccnc2)CC1` the figure was 20.2%; with `O=C(Nc1ccccc1N1CCOCC1)c1cccc(S(=O)(=O)Nc2ccccc2F)c1`, -37.1%; with `O=C(Cc1ccccc1)NCC(=O)Nc1cccc(Br)c1`, -9.9%. In the case of `NCCCC[C@H]1CNC(=S)N1CCc1cccc(F)c1`, the “hERG current change (%, negative = inhibition) at 10uM” value is -3.37%.

For `COc1ccccc1/C=C\C=N\NC(=O)c1ccco1`, the “hERG current change (%, negative = inhibition) at 10uM” value is -6.34%. `CN(N)c1nc2ccccc2nc1C(F)(F)F`: the “hERG current change (%, negative = inhibition) at 10uM” value was found to be 12%. With `COc1ccc2oc(C(=O)N(Cc3ccco3)Cc3cccs3)c(C)c2c1` the figure was -23.5%; with `CCc1cc(C(=O)OC)c(NC(=O)CC2SC(=NC)N(C)C2=O)s1` (centres unmarked), -1.73%. With `O=C(CCc1nnc2ccc(NCCCN3CCCC3=O)nn12)NCc1ccccc1Cl` the figure was -1.05%. With `COc1ccccc1N1CCN(/N=C\c2ccccc2)CC1` the figure was 8.74%.

Regarding `S=c1[nH]nc(-c2ccco2)n1/N=C/C(Cl)=C/c1ccccc1`, the “hERG current change (%, negative = inhibition) at 10uM” value turned out to be 5.55%. With `COc1ccc(-c2cc(C(=O)NN)[nH]n2)cc1OC` the figure was 6.6%. Turning to `O=C(O)CCN1C(=O)/C(=C\c2cccc(OCC(=O)Nc3ccc(Cl)cc3)c2)SC1=S`, the “hERG current change (%, negative = inhibition) at 10uM” value was 11.2%.

As for `O=C(c1cc(COc2ccc(F)cc2Cl)on1)N1CCCCC1c1cccnc1` (centres unmarked), the “hERG current change (%, negative = inhibition) at 10uM” value is listed as -41.8%. On to `CN1CCN(C(=O)c2cccc(COc3cc(Cl)ccc3Cl)c2)CC1`, for which the “hERG current change (%, negative = inhibition) at 10uM” value is recorded as -41.6%.

`CCOc1ccc(NC(=O)/C(C#N)=C/c2cn(CC(=O)O)c3ccccc23)cc1`: the “hERG current change (%, negative = inhibition) at 10uM” value was determined as 8.76%. With `COc1ccc(NC(=O)Nc2ccon2)c(OC)c1` the figure was 14.8%; with `Cc1cc(C)n(C(C)Sc2ccccc2)n1` (centres unmarked), 10.5%. With `CC(C)CC(C(=O)NC(C)(C)C)N(Cc1ccccc1Cl)C(=O)c1snc(C(N)=O)c1N` (centres unmarked) the figure was 7.57%; with `CC(C)(C)NC(=O)C(Cc1ccccc1)N1C(=O)c2ccccc2C1=O` (centres unmarked), 6.68%.

As for `c1ccc(CO/N=C(\c2ccc(C3CC3)nc2)C2CC2)cc1`, the “hERG current change (%, negative = inhibition) at 10uM” value worked out at 13.5%.

Regarding `CCC(C)c1ccc(NC(=O)COC(=O)c2nc3nccc(C)n3n2)cc1` (centres unmarked), the “hERG current change (%, negative = inhibition) at 10uM” value was -10.9%.

With `CC(=O)c1ccc(N(C(=O)Cc2c[nH]c3ccccc23)C(C(=O)NC2CCCCC2)c2cccs2)cc1` (centres unmarked), the “hERG current change (%, negative = inhibition) at 10uM” value is given as 7.81%. Turning to `COc1cccc(C(=O)Nc2ccc3[nH]c(=O)[nH]c3c2)c1OC`, the “hERG current change (%, negative = inhibition) at 10uM” value was 26.2%. Under `COCCNC(=O)C1Nc2ccc(OC(F)(F)F)cc2C2C=CCC12` (centres unmarked) stands -17%; under `CC(C)c1c(O)nc(SCC(=O)N2CCOCC2)[nH]c1=O`, -14.9%; under `Cc1cc(-c2ccco2)n(CC(=O)NCc2ccco2)n1`, 8.48%. With `O=C(O)CC(CC(=O)Nc1nncs1)c1ccccc1` (centres unmarked) the figure was -4.93%; with `CCC1(c2ccc(OC)cc2)NC(=O)N(CC(=O)c2ccc3c(c2)OCCO3)C1=O` (centres unmarked), -1.85%; with `Cc1ccc(-c2cn(CCN)c(-c3ccncc3)n2)cc1`, -5.35%. With `CC(=O)C[C@H]1c2cc(C(F)(F)F)ccc2S(=O)(=O)N1C1CCCC1` the figure was -12.1%; with `C=CCOc1ccc(Cl)cc1C(=O)O`, 6.26%.

Take `FC(F)(F)c1cccc(CNC2CCN(Cc3ccccc3)CC2)c1`: the “hERG current change (%, negative = inhibition) at 10uM” value is on record as -28.3%.

Take `CC1C(c2cccs2)=[N+]([O-])C(C)(C(=O)c2cccs2)N1O` (centres unmarked): the “hERG current change (%, negative = inhibition) at 10uM” value was 23.2%. Under `CC1Cc2nc(SCC(=O)N3CCCC3)n(C)c(=O)c2S1` (centres unmarked) stands -7.79%. Under `Cc1ccc(NC(=O)c2ccc(CSc3nnc(-c4ccncc4)n3C)cc2)c(C)c1` stands -4.89%. With `CCOC(=O)Cc1cc(-c2ccc(O)cc2)nc2ccc3ccccc3c12` the figure was -9.56%. Turning to `CC(=O)c1cccc(CN2CCN(Cc3ccccc3)C(CCO)C2)c1` (centres unmarked), the “hERG current change (%, negative = inhibition) at 10uM” value is -1.84%. With `N#Cc1ccccc1OCC(=O)NNC(=O)c1ccncc1` the figure was 9.65%; with `CCOC(=O)c1cc(-c2ccco2)nc2c1c(C)nn2-c1ccccc1`, 11.2%. Under `COc1ccccc1/C=N/NC(=O)C(C)Cn1cnc2ccccc21` (centres unmarked) stands 0.86%; under `CC(=O)Nc1ccc(CN2CCN(C3CCCCC3)C(CCO)C2)cc1` (centres unmarked), 13.7%; under `Clc1ccc(CNC23CN4CN(CN(C4)C2)C3)c(Cl)c1`, -1.63%.

As for `COc1ccc(OC)c(NC(=O)CSc2nnnn2C)c1`, the “hERG current change (%, negative = inhibition) at 10uM” value amounted to 13.3%. In the case of `CCN1CCN(C2=C(NS(=O)(=O)c3ccc(Br)cc3)C(=O)c3ccccc3C2=O)CC1`, the “hERG current change (%, negative = inhibition) at 10uM” value is -61.5%. In the case of `Br.Cn1c(=N)n(CC(=O)c2cccs2)c2ccccc21`, the “hERG current change (%, negative = inhibition) at 10uM” value is -0.146%.

With `CCC(C)NS(=O)(=O)c1ccc(S(=O)(=O)N(CCc2ccc(OC)c(OC)c2)Cc2cccs2)cc1` (centres unmarked), the “hERG current change (%, negative = inhibition) at 10uM” value was -5.84%. With `CN1CCN(c2nc(-c3cccnc3)nc3ccccc23)CC1` the figure was -48.5%; with `Cc1ccc2nc(NC(=O)CN(C)S(=O)(=O)c3cccc4nsnc34)sc2c1`, 24.9%. With `Cc1onc(-c2ccc(Cl)cc2Cl)c1-c1csc(COc2ccccc2)n1` the figure was 0.985%; with `CCCCOc1cccc(/C=N/NC(=O)c2csc(C)c2C)c1`, 12%; with `COc1cc(O)c(C(CC(=O)N2CCN(c3ccccc3)CC2)c2cc(OC)c(OC)c(OC)c2)c(OC)c1` (centres unmarked), 6.34%. With `Cc1noc(NS(=O)(=O)c2ccc(NC(=O)C(C)C)cc2)c1C`, the “hERG current change (%, negative = inhibition) at 10uM” value was found to be 15.7%. `CCCC(CCC)C(=O)Nc1cccc(-c2cn3c(n2)SCC3)c1`: the “hERG current change (%, negative = inhibition) at 10uM” value is 17.5%.

`Cc1cc(C)c(NC(=O)CS(=O)CC(=O)Nc2cccnc2)c(C)c1` (centres unmarked): the “hERG current change (%, negative = inhibition) at 10uM” value was 14.6%. For the molecule `O=C(CCc1ccc(S(=O)(=O)NC2CCCCC2)cc1)NCc1ccccc1`, the “hERG current change (%, negative = inhibition) at 10uM” value was -19%.
